From PubChem BioAssay AID588342 (National Center for Advancing Translational Sciences (NCATS), 2011)
In all, about 360,000 compounds went through this assay and about 25,000 (6.9%) were called active. Inconclusive results, whose numbers are uncertain, are shown with a selection of clear calls. The call rests on the fitted dose curve; in most records, active means well fitted inhibition curve with a large enough effect; inconclusive means small, poorly fitted or top-dose-only effect; inactive means flat fitted curve, though single readings scatter. Potencies of inconclusive entries are doubtful fits and often do not repeat.

target: Luciferin 4-monooxygenase (Photinus pyralis) (UniProt P08659); experiment: qHTS profiling assay for firefly luciferase inhibitor/activator using purifed enzyme and Km concentrations of substrates (counterscreen for miR-21 project); conditions: purified FLuc, luminescence inhibition; series mostly up to 57.5 µM; activity change, negative = inhibition: at the top concentration; further: nearly all actives have a fitted effect of over 55% in size;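 on activity change, negative = inhibition: plate controls were vehicle for no effect and reference inhibitor for full effect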
Outline: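 Purified P. pyralis luciferase, 10 nM final, with Km-level 10 uM D-luciferin and 10 uM ATP in 50 mM Tris acetate pH 7.5, 10 mM Mg acetate, 0.01% Tween-20, 0.05% BSA; 6-point qHTS titration about 60 µM downward; luminescence read.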
Potency means the concentration at half of the fitted maximal effect; tags describe the fitted curve by direction and shape.

UniProt P08659, sequence (P08659 whole entry, looked up): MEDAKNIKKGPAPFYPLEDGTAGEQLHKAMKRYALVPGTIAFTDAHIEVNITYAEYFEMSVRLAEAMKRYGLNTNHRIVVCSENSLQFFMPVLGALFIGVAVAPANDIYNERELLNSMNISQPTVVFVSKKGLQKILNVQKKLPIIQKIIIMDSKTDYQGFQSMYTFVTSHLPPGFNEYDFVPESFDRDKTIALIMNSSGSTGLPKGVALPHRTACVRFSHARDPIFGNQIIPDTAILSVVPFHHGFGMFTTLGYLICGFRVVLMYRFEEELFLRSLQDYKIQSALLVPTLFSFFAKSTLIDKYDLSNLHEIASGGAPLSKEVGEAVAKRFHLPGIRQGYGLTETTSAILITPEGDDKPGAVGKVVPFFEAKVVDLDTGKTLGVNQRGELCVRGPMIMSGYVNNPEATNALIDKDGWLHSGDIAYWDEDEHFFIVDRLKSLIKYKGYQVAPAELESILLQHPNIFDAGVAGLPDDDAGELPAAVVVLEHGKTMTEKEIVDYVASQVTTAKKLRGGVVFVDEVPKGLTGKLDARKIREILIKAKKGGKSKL

Question: How did the Potency turn out when `COc1ccc(Nc2nc(N)nc(CSc3nc4cc(OC)ccc4s3)n2)cc1` was run?
Answer: The Potency was inconclusive: 15.1 µM [inhibitor, partial curve, poor fit].

Question: For `Cc1cc(=O)[nH]c(SCC(=O)Nc2ccc3c(c2)CCC3)c1C#N`, which Potency is on record?
Answer: Its Potency is inconclusive: 19 µM [inhibitor, partial curve].

Question: With `COc1ccc(CC(=O)Nc2ccc(-c3cn4ccccc4n3)cc2)cc1` as the molecule, how does the Potency read?
Answer: The Potency was active: 3.38 µM.

Question: `Cc1ccc(S(=O)(=O)CCC(=O)Nc2nnc(-c3cccs3)o2)cc1` was tested. Which “activity change, negative = inhibition” value did it give?
Answer: Its value is inactive: -0.979%.

Question: `CSc1nsc(SCC(=O)Nc2nc3ccccc3s2)n1` was tested. Which Potency did it give?
Answer: The Potency was inconclusive: 26.9 µM [inhibitor, single point].

Question: For `CC(Nc1ccc(-c2nc(-c3ccccn3)no2)cc1[N+](=O)[O-])c1ccccc1` (stereo not given), which Potency is on record?
Answer: The Potency was inconclusive: 21.3 µM [inhibitor, partial curve].

Question: For `CCn1c(C)c(C)c2cc(C(=O)N3CCc4ccccc4C3)ccc21`, which Potency is on record?
Answer: Its Potency is inconclusive: 26.9 µM [inhibitor, partial curve, poor fit].

Question: Which “activity change, negative = inhibition” value does the source give for `O=C(CSCc1cnn(-c2ccccc2)c1-n1cccc1)Nc1ccc(F)cc1F` here?
Answer: Its value is inactive: -1.26%.

Question: With `O=C(/C(=C(\[O-])c1ccccc1)[n+]1ccc2ccccc2c1)c1ccc(Cl)cc1` as the molecule, how does the Potency read?
Answer: Its Potency is inconclusive: 37.9 µM [inhibitor, partial curve, poor fit].

Question: How did the “activity change, negative = inhibition” value turn out when `CCOc1ccc(C)cc1S(=O)(=O)n1ccnc1` was run?
Answer: The value was inactive: 5.4%.

Question: `C/C(=N\NC(=O)c1ccc(Cl)cc1)c1cccnc1` was tested. Which Potency did it give?
Answer: Its Potency is active: 16.9 µM.

Question: For `O=C(Nc1ccc(Cl)c(S(=O)(=O)N2CCCC2)c1)c1nn(CCO)c(=O)c2ccccc12`, which Potency is on record?
Answer: Its Potency is inconclusive: 37.9 µM [inhibitor, partial curve, poor fit].

Question: How did the Potency turn out when `COc1ccc(C(=O)Nc2ncc3c(n2)-c2ccccc2CC3)cc1` was run?
Answer: Its Potency is inconclusive: 19 µM [inhibitor, single point].

Question: With `COc1cccc(NC(=O)c2nc3ncccn3n2)c1` as the molecule, how does the Potency read?
Answer: Its Potency is inconclusive: 26.9 µM [inhibitor, single point].

Question: How did the Potency turn out when `O=C(NC1CCCCC1)c1ccc(-c2ccc(Cl)cc2)o1` was run?
Answer: The Potency was inconclusive: 2.69 µM [inhibitor, partial curve].

Question: Which Potency does the source give for `C=CCOc1ccc(C2C(C(=O)c3ccco3)=C(O)C(=O)N2c2nnc(C)s2)cc1` (stereo not given) here?
Answer: The Potency was inconclusive: 16.9 µM [inhibitor, partial curve].

Question: With `CCc1c(C(=O)N/N=C/c2sccc2C)nnn1-c1nonc1N` as the molecule, how does the Potency read?
Answer: The Potency was inconclusive: 5.36 µM [inhibitor, partial curve, poor fit].

Question: How did the Potency turn out when `O=C1CN(C(=O)OCc2ccccc2)c2ccccc2N1` was run?
Answer: The Potency was inconclusive: 23.9 µM [inhibitor, single point].

Question: For `COc1ccc(NC(=O)CSc2nc(-c3ccccc3)nc3c2Cc2c(CO)cnc(C)c2O3)cc1Cl`, which “activity change, negative = inhibition” value is on record?
Answer: Its value is inactive: -1.86%.

Question: With `Nc1c(C(=O)OCC(=O)Nc2ccc(Cl)cc2[N+](=O)[O-])[nH]c(=O)[nH]c1=O` as the molecule, how does the “activity change, negative = inhibition” value read?
Answer: Its value is inactive: 1.54%.

Question: With `COc1ccc(Cl)cc1N(C)C(=O)C(=O)Nc1ccc2nc3n(c(=O)c2c1)CCCCC3` as the molecule, how does the “activity change, negative = inhibition” value read?
Answer: The value was inactive: -1.25%.

Question: For `O=C(Nc1cccc(NC(=O)c2ccco2)c1)c1ccc2c(c1)OCO2`, which Potency is on record?
Answer: The Potency was active: 15.1 µM.

Question: `O=C(CSc1n[nH]c(-c2ccccc2)n1)N1CCOCC1` was tested. Which Potency did it give?
Answer: The Potency was inconclusive: 37.9 µM [inhibitor, partial curve, poor fit].

Question: `CCc1ccc(S(=O)(=O)c2nnn3c2nc(NCc2ccccc2OC)c2cc(Cl)ccc23)cc1` was tested. Which “activity change, negative = inhibition” value did it give?
Answer: The value was inactive: -0.594%.

Question: `Cc1cc(/C=C2\C(=N)N3N=C(CC(=O)N4CCOCC4)SC3=NC2=O)c(C)n1-c1ccccc1` was tested. Which Potency did it give?
Answer: Its Potency is active: 10.7 µM.

Question: For `O=C(Nc1nc2c(s1)CCCC2)c1cc(-c2ccc3c(c2)OCO3)nc2ccccc12`, which Potency is on record?
Answer: Its Potency is inconclusive: 19 µM [inhibitor, partial curve].

Question: For `CCN(CC)C(=O)c1ccc(COc2ccccc2Cl)cc1`, which Potency is on record?
Answer: Its Potency is inconclusive: 9.53 µM [inhibitor, partial curve].

Question: With `Clc1ccc2c(NNc3ccccc3Cl)ccnc2c1` as the molecule, how does the Potency read?
Answer: The Potency was inconclusive: 13.5 µM [inhibitor, partial curve, poor fit].

Question: For `CCc1ccc(N2CC(C(=O)NC3CCCCC3C)CC2=O)cc1` (stereo not given), which “activity change, negative = inhibition” value is on record?
Answer: The value was inactive: -1.07%.

Question: `O=C1CC(NNc2ccccc2)C(=O)N1c1ccccc1` (stereo not given) was tested. Which Potency did it give?
Answer: The Potency was inconclusive: 30.1 µM [inhibitor, single point].

Question: Which Potency does the source give for `O=C(CSCc1ccc([N+](=O)[O-])cc1)Nc1ccccc1C(=O)O` here?
Answer: The Potency was inconclusive: 23.9 µM [inhibitor, single point].

Question: Which Potency does the source give for `CCOc1ccc(NC(=O)CN2C(=O)COc3ccc(S(=O)(=O)N4CCCC4)cc32)cc1` here?
Answer: Its Potency is inconclusive: 37.9 µM [inhibitor, single point].

Question: With `O=C(c1ccc(COc2ccccc2Cl)o1)N1N=C(C(F)F)CC1(O)C(F)F` (stereo not given) as the molecule, how does the Potency read?
Answer: Its Potency is inconclusive: 9.53 µM [inhibitor, partial curve, poor fit].

Question: Which “activity change, negative = inhibition” value does the source give for `NC(=O)CSc1nnc(-c2ccccc2F)n1C1CC1` here?
Answer: Its value is inactive: 0.695%.

Question: Which Potency does the source give for `O=C(/C=C/c1ccc2c(c1)OCO2)NCc1ccco1` here?
Answer: The Potency was inconclusive: 23.9 µM [inhibitor, partial curve, poor fit].

Question: With `COc1ccccc1OC(=O)c1cc2ccccc2oc1=O` as the molecule, how does the “activity change, negative = inhibition” value read?
Answer: The value was inactive: -18%.

Question: `CCOc1ccc(NC(=O)Cn2nnc(-c3ccc(C(N)=O)cc3)n2)cc1S(=O)(=O)N1CCCC1` was tested. Which Potency did it give?
Answer: Its Potency is active: 6.75 µM.

Question: Which “activity change, negative = inhibition” value does the source give for `O=C(COC(=O)C1C2CC3OC(=O)C1C3C2)Nc1ccc(Cl)cc1` (stereo not given) here?
Answer: Its value is inactive: -1.8%.

Question: How did the Potency turn out when `COC(=O)c1ccccc1N/C=C1\CCc2c(c(C)nn2-c2ccccn2)C1=O` was run?
Answer: Its Potency is inconclusive: 23.9 µM [inhibitor, single point].

Question: With `COc1cc(/C=C2/C(=O)c3cccc([N+](=O)[O-])c3C2=O)c(Br)cc1O` as the molecule, how does the Potency read?
Answer: Its Potency is inconclusive: 37.9 µM [inhibitor, single point].

Question: `CSc1ccc(/C=C(\NC(=O)c2ccco2)C(=O)N2CCCCC2)cc1` was tested. Which “activity change, negative = inhibition” value did it give?
Answer: Its value is inactive: -2.83%.

Question: How did the Potency turn out when `COc1cc(/C=N/NC(=O)c2ccc3c(c2)OCO3)ccc1O` was run?
Answer: Its Potency is active: 16.9 µM.

Question: How did the Potency turn out when `CCOC(=O)c1cccc(N2C(=O)Nc3ccccc3N2O)c1` was run?
Answer: Its Potency is inconclusive: 37.9 µM [inhibitor, single point].

Question: For `CC1CCCC(NC(=S)Nc2ccc(SC(F)F)cc2)C1C` (stereo not given), which Potency is on record?
Answer: Its Potency is inconclusive: 21.3 µM [inhibitor, partial curve].

Question: Which Potency does the source give for `NC(=O)c1ccccc1NC(=O)COc1ccc2c(c1)OCO2` here?
Answer: Its Potency is active: 4.78 µM.
